Data taken from PMC12136788.
This is one part of the list.

T1: UNK ZnF1-6 (called full-length) (human, UniProt Q9C0B0 30-357)
T1 sequence: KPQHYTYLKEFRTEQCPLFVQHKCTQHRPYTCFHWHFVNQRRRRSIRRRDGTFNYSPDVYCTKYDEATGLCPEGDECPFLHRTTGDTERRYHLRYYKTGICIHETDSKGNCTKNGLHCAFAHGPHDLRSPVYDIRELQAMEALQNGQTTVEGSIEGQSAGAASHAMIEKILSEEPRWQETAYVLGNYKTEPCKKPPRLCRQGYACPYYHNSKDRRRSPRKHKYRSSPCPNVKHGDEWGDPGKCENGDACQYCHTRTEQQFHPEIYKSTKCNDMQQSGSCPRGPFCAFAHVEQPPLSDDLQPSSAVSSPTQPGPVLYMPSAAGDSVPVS

B1: chr12:49127802:49127903:-|3pUTR|ENSG00000123416|msi1_unk|total|mutant (ssRNA)
RNA: GGGAGUUCUACAGUCCGACGAUCAUGUCAUGCUCCCAGAAUUUCAGCUUCAGCUUAACUGACAGACGUUAAAGCUUUCUGGUCCGAUUGUUUUCACUUGGUGAUCAUGUCUUUUCCAUGUGUACCUGUAAUAUUUUUCCAUCACAACAGAGGAUUGAGCAUCA
B2: chr2:108783740:108783841:+|CDS_3pUTR|ENSG00000153201|msi1_unk|FALSE|overlapping (ssRNA)
RNA: GGGAGUUCUACAGUCCGACGAUCCAAUAAUUCUCAAUUUGUUAUAACACUGAAGAAAGCAGAACAUUUGGACUUUAAGCAUGUAGUAUUUGGGUUUGUUAAGGAUGGCAUGGAUACUGUGAAAAAGAUUGAAUCAUUUGGUUCCAACAGAGGAUUGAGCAUCA
B3: chr17:21001410:21001511:-|3pUTR|ENSG00000124422|msi1_unk|total|mutant (ssRNA)
RNA: GGGAGUUCUACAGUCCGACGAUCCCGUACAACUUUCCGACACAGAAAUCUGAAUGACAUAUAUUGUUCUGUGUCAAGAAACUCCGAUUUUUUUUUUAACUAUUUAAAAACGUGAAACCUAUUCUCCGCUCACAGGCCAUGGAGCAACAGAGGAUUGAGCAUCA
B4: chr20:4700211:4700532:+|3pUTR|ENSG00000171867|msi1|total|mutant (ssRNA)
RNA: GGGAGUUCUACAGUCCGACGAUCUUGCCUGGAUACCUCUGGCUCCUUCAGCAGCCCGAGCUCAGUAUACUAAUGCCCUAUCUCCGCCGAGAUUUCACCGCUAUUCCGAGAUAUUUUCCAUUUUAAGAAAACCCGACAACAUUUCAACAGAGGAUUGAGCAUCA
B5: chr6:149379354:149379455:+|CDS|ENSG00000055208|msi1|FALSE|bound_elsewhere (ssRNA)
RNA: GGGAGUUCUACAGUCCGACGAUCAGGGGUGGUGUCCCCUACCUUUGAACUUACAAAUCUUCUUAAUCAUCCUGAUCAUUAUGUAGAAACCGAGAAUAUUCAGCACCUCACGGACCCUACAUUAGCACAUGUGGAUAGAAUAAGCAACAGAGGAUUGAGCAUCA
B6: ENSG00000100154:stop:overlap|stop_codon|ENSG00000100154|stop_codon|NA|stop_codon (ssRNA)
RNA: GGGAGUUCUACAGUCCGACGAUCAGCCAGUGAAGGCAGGUGACACUUACCUCCACCAGGUGAUGCAGGCUGUGGUGAUAAACUAGAGUGUGAAGAGCUCAGAGUGCAGCCUCUGGCCUUGCCACUCACAAGCUGUAGGACACUCAACAGAGGAUUGAGCAUCA
B7: chr7:138706293:138706717:-|three_prime_utr|ENSG00000105929|control|control|control (ssRNA)
RNA: GGGAGUUCUACAGUCCGACGAUCAUGGUUACAAGUUUUCUCCAUUCUCCUUUAAACACAUCCUGGAUGGCACAGCCGAGGAGUAGGCUGAGGGCUGCACCUCCCACGGUGGUCACCAUGCCAAUGAAGGAAGUUCAGUCUUGUCAACAGAGGAUUGAGCAUCA
B8: chr22:45843749:45843850:+|3pUTR|ENSG00000130638|msi1|total|mutant (ssRNA)
RNA: GGGAGUUCUACAGUCCGACGAUCAAAUUGCAAGUGUUUGAAGAUUUAUAAGUACAAAUUUGGGAACAUACAAAUCUUUCCGGCCGCCGAGUUUAACGUGUAUAAGCUAAAAGUGAAAGUAACUGAGUGUUCUCUUGUUUCUUUCAACAGAGGAUUGAGCAUCA
B9: chr8:17644361:17644462:-|3pUTR|ENSG00000129422|msi1|FALSE|bound_elsewhere (ssRNA)
RNA: GGGAGUUCUACAGUCCGACGAUCCAACAUUGUGAUGUCAGUAUUUACUAAUCUACAUUCAGUGGCUGUACAAAUAACAGCUGUAGUAAGAAGAGAUUCAGGAUGCUAGAGGUGAAUAUUUGGGUCAUUUACAUGUACACUACACAACAGAGGAUUGAGCAUCA
B10: chr18:2547350:2547451:-|CDS|ENSG00000101574|unk|FALSE|unique (ssRNA)
RNA: GGGAGUUCUACAGUCCGACGAUCUAGACAGAAGCACCUACGUUUUAUAAAGGAAGAACUUUAUCCCUCUUGGUCUGUGGAGGUAGUUGCUGAGUGGCACUGGGUAAAAGUAAGUUCAGAAGUUAGCUUAUUUGUUAAUACAGCCAACAGAGGAUUGAGCAUCA
B11: chr15:52582156:52582307:-|CDS|ENSG00000047346|control|control|control (ssRNA)
RNA: GGGAGUUCUACAGUCCGACGAUCAAGAUCUACCUCCAUAGAGACGUACGGCUCCUGUUCUCUAGAAAGUCAAUGGAGGUUGAUAGCGGUGCUGCAUAUGAACUCAAAUCUUACACUGAAUCACCAACAAACCCUCAGUUUUCACAACAGAGGAUUGAGCAUCA
B12: chr1:54216159:54216271:+|CDS|ENSG00000116221|unk|total|mutant (ssRNA)
RNA: GGGAGUUCUACAGUCCGACGAUCCUUGGAGCAGCCCGUGGUGGUGCAGAGCGUGGGCACGGAUGGACGUGUCUUCCAUUUCCCCGUGUUUCAACUGAAUACCACAGACCUGGACUGUAACGAGGGUGUCAAGAAUUUGGCCUGCAACAGAGGAUUGAGCAUCA
B13: chr12:27081967:27082483:-|CDS|ENSG00000214700|control|control|control (ssRNA)
RNA: GGGAGUUCUACAGUCCGACGAUCGAGAACAAAACUGUCUGUUGGCAAACUGAAUAAUCUUGUGCAAGAGUUUCAGAUAUUUCUAGAAAAUCUGAAAGAUGAUGACGCUGUAUUUCCUGAAACUGCUCAGCAAGAUUUCCAGCUCAACAGAGGAUUGAGCAUCA
B14: chr14:88572724:88572825:+|CDS|ENSG00000100722|unk|total|mutant (ssRNA)
RNA: GGGAGUUCUACAGUCCGACGAUCGUGACACUUACAUAUGGUUCUUCUCGCCCUUCUAUUGAAAUUUAUCGACCACCUGCAAGCCGAAAUGCAGACCGUGGUGUUCAUUUAAACAGGUUGCAAUUUCAACAGCAGCAGAACCGUCAACAGAGGAUUGAGCAUCA
B15: chr19:49662424:49662617:-|CDS|ENSG00000126456|control|control|control (ssRNA)
RNA: GGGAGUUCUACAGUCCGACGAUCGUUACUGGGUAACAUGGUGUUGGCCCCACUCCCAGAUCCGGGACCCCCAAGCCUGGCUGUAGCCCCUGAGCCCUGCCCUCAGCCCCUGCGGAGCCCCAGCUUGGACAAUCCCACUCCCUUCAACAGAGGAUUGAGCAUCA
B16: chr1:45741042:45741143:-|CDS|ENSG00000197429|msi1|FALSE|unique (ssRNA)
RNA: GGGAGUUCUACAGUCCGACGAUCUGCCAUGAUCUCUUGGAAUUCUCAGAAAACUACAUUCAUGUCCAUUUCUUGGAGGUUCAUAGUGGAGAAGAGUUCCUGGCACUUACGAAAGAUCAGCUGAUCAAAAUUUUGCGAAGUGAACAACAGAGGAUUGAGCAUCA
B17: chr12:6238111:6238124:+|3pUTR|ENSG00000010278|msi1_unk|total|mutant (ssRNA)
RNA: GGGAGUUCUACAGUCCGACGAUCUGUUUGUUUUUGCUUGUUAUAUUAAGCAGAAAUCCUGCAAUGAAAGGUACUAUAUUUGCCCGACUCCCGACAAGAUAUUGUACAUAAAAGAAUUUUUUUGUCUUUAAACCGAUACAAAUGCAACAGAGGAUUGAGCAUCA
B18: chr16:67976092:67976228:-|CDS|ENSG00000141096|control|control|control (ssRNA)
RNA: GGGAGUUCUACAGUCCGACGAUCCCUCAGGGGCUGGAGGAUGUGUCCACAUACCCAGUCCUGAUAGAGGAGUUGCUGAGUCGUAGCUGGAGCGAGGAAGAGCUUCAAGGUGUCCUUCGUGGAAACCUGCUGCGGGUCUUCAGACAACAGAGGAUUGAGCAUCA
B19: chr12:6965432:6965572:-|3pUTR|ENSG00000215021|unk|total|mutant (ssRNA)
RNA: GGGAGUUCUACAGUCCGACGAUCUGCGAUGGUCCCCCACACCGGUUCCCUGAACCCCUCUUGGAUUAAGGAAGACUGAAGACCCGCCCCUUUUCUGGGGAAUUACUUUCCUCCUCCCUGUGUUAACUGGGGCUGUUGGGGACACAACAGAGGAUUGAGCAUCA
B20: ENSG00000136451:be:win_1401|CDS|ENSG00000136451|bound_else_gene|NA|bound_elsewhere_windowed (ssRNA)
RNA: GGGAGUUCUACAGUCCGACGAUCCACCCCCGUCACUGCCCCAGUGAAUAUAGCACACCCUGUCACCAUCACAUCUCCAAUGAAUCUACCCACACCUAUGACAUUAGCCGCCCCUCUCAAUAUAGCAAUGAGACCUGUAGAGAGCAACAGAGGAUUGAGCAUCA
B21: chr7:41967724:41967825:-|CDS|ENSG00000106571|msi1|FALSE|bound_elsewhere (ssRNA)
RNA: GGGAGUUCUACAGUCCGACGAUCCCCCAUCAGCAACUAUUCCAACAGUGGGCUCGAGCUUCCUCUGACCGAUGGAGGUAGUAUAGGAGACCUCAGUGCCAUCGAUGAAACCCCAAUCAUGGACUCAACCAUUUCCACUGCAACCAACAGAGGAUUGAGCAUCA
B22: chr3:179334266:179334377:+|CDS|ENSG00000121864|unk|total|mutant (ssRNA)
RNA: GGGAGUUCUACAGUCCGACGAUCUUAUUUAUGUCAAUAUUGUGAAUAUUCAACAGGACAAAUUGAAGAUCUUAAAAUUCAUCCCGAUUUCAAGCAUUCAGCUGACUUGCCUCAUAAAUGCCGUGACUGCUUGAUGAGGUUUGGCAACAGAGGAUUGAGCAUCA

These binders were tested against T1, UNK ZnF1-6 (called full-length) (assay: nsRBNS (natural sequence RNA bind-n-seq); RBNS binding buffer (assumed for nsRBNS): 25 mM Tris pH 7.5, 150 mM KCl, 3 mM MgCl2, 0.01% Triton X-100, 500 ug/ml BSA, 20 U/ml SUPERase-In, 4 C; UNK is unkempt and MSI1 is Musashi-1; names of the RNAs are library labels; protein concentration not given here; high values mean tight binding).
B1 was tested, and the binding signal was 0.481 enrichment R. B2 was tested, and the binding signal was 0.671 enrichment R. With B3 the binding signal was 0.479 enrichment R. For B4, the binding signal was 0.676 enrichment R. For B5, the binding signal was 0.615 enrichment R. In the case of B6, the binding signal is reported as 0.552 enrichment R. For B7, the binding signal was 0.639 enrichment R. With B8 the binding signal was 0.399 enrichment R. Binder B9 has a binding signal of 0.301 enrichment R. Work on B10 yielded a binding signal of 0.729 enrichment R. For B11, the binding signal was 0.648 enrichment R. With B12 the binding signal was 0.731 enrichment R. For B13, the binding signal was 0.268 enrichment R. With B14 the binding signal was 0.566 enrichment R. B15 gave a binding signal of 1.06 enrichment R. B16 was tested, and the binding signal was 0.258 enrichment R. In the case of B17, the binding signal is reported as 0.428 enrichment R. B18 gave a binding signal of 0.577 enrichment R. B19 gave a binding signal of 0.701 enrichment R. With B20 the binding signal was 1.59 enrichment R. Binder B21 has a binding signal of 0.689 enrichment R. B22 gave a binding signal of 0.321 enrichment R.
